Laboratory results as given in the supplement of paper PMC7125110.
This sample is rich in variants without activity.

B1: glmS ribozyme (parent)
chain: AUAAAAGCGCCAGAACUACAGAAAUGUAGUUGACGAGGAGGAGGUUUAUCGAAUUUUCGGCGGAUGCCUCCAAA

Experiments:
Details in all cases: with glucosamine-6-phosphate
[1] = variants of: B1; experiment: self-cleavage kobs at 40 uM GlcN6P; higher = faster cleavage; RNA array
Summary of the method: (§1)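 Barcoded ribozyme variants on sequenced MiSeq chips were transcribed in situ by E. coli RNA polymerase and followed at 37 °C through a hybridised Cy3 probe. Glucosamine-6-phosphate at 40 μM to 10 mM in HEPES/KCl/Mg(OAc)2 buffer was flowed in, and tiles were imaged over ~14 h. Signals were normalised to baseline and to non-cleaving reference variants, and per-tile medians were fit to one- or two-exponential decays to give kobs. Weighted Michaelis–Menten fits across concentrations gave kcat and KM.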

[2] = variants of: B1; experiment: self-cleavage kobs at 640 uM GlcN6P; higher = faster cleavage; RNA array
Summary of the method: as §1

[3] = variants of: B1; experiment: self-cleavage kobs at 160 uM GlcN6P; higher = faster cleavage; RNA array
Summary of the method: as §1

[4] = variants of: B1; experiment: self-cleavage kobs at 2500 uM GlcN6P; higher = faster cleavage; RNA array
Summary of the method: as §1

[5] = variants of: B1; experiment: self-cleavage kobs at 10000 uM GlcN6P; higher = faster cleavage; RNA array
Summary of the method: as §1

AUAAAACCGCCAGAACUACAGAAAUGUAGUUGACGAGGAGGAGGUUUAUCGAAUUUUCGGCGGAUGGCUCCAAA [G7C C67G]
< 1e-05 s⁻¹: self-cleavage kobs at 40 uM GlcN6P [1] | self-cleavage kobs at 640 uM GlcN6P [2] | self-cleavage kobs at 160 uM GlcN6P [3] | self-cleavage kobs at 2500 uM GlcN6P [4] | self-cleavage kobs at 10000 uM GlcN6P [5]

AUAAAACCGCCAGAACUACAGAAAUGUAGUUGACGAGGAGGAGGUUUAUCGAAUUUUCGGCGGAUGCCUUCAAA [G7C C70U]
< 1e-05 s⁻¹: self-cleavage kobs at 40 uM GlcN6P [1] | self-cleavage kobs at 640 uM GlcN6P [2] | self-cleavage kobs at 160 uM GlcN6P [3]

AUAAAACCACCAGAACUACAGAAAUGUAGUUGACGAGGAGGAGGUUUAUCGAAUUUUCGGCGGAUGCCUCCAAA [G7C G9A]
< 1e-05 s⁻¹: self-cleavage kobs at 40 uM GlcN6P [1] | self-cleavage kobs at 640 uM GlcN6P [2] | self-cleavage kobs at 160 uM GlcN6P [3] | self-cleavage kobs at 10000 uM GlcN6P [5]

AUAAAACCCCCAGAACUACAGAAAUGUAGUCGACGAGGAAGAGGUUUAUCGAAUUUUCGGCGGAUGCCUCCAAA [G7C G9C U31C G40A]
< 1e-05 s⁻¹: self-cleavage kobs at 40 uM GlcN6P [1] | self-cleavage kobs at 10000 uM GlcN6P [5]

AUAAAACCUCCAGAACUACAGAAAUGUAGUUGGCGAGGAGGAGGUUGAUCGCAUUUUCGGCGUAUGCCUCCAAA [G7C G9U A33G U47G A52C G63U]
< 1e-05 s⁻¹: self-cleavage kobs at 40 uM GlcN6P [1]

AUAAAACCUCCAGAACUACAGAAAUGUAGUUGACGAGGAGGAGGUUUAUUGAAUUUUCGGCGGAUGCCUCCAAA [G7C G9U C50U]
< 1e-05 s⁻¹: self-cleavage kobs at 40 uM GlcN6P [1] | self-cleavage kobs at 10000 uM GlcN6P [5]

AUAAAACCGCCACAACUACAGAAAUGUAGUUGACGAGGAGGAGGUUUAUCGAAUUUUCGGCGGAUGCCUCCAAA [G7C G13C]
< 1e-05 s⁻¹: self-cleavage kobs at 40 uM GlcN6P [1] | self-cleavage kobs at 640 uM GlcN6P [2] | self-cleavage kobs at 160 uM GlcN6P [3] | self-cleavage kobs at 2500 uM GlcN6P [4] | self-cleavage kobs at 10000 uM GlcN6P [5]

AUAAAACCGCCAGAACUACAGAAAUGUAGUUCACGAGGAGGAGGUUUAUCGAAUUUUCGGCGGAUGCCUCCAAA [G7C G32C]
< 1e-05 s⁻¹: self-cleavage kobs at 40 uM GlcN6P [1] | self-cleavage kobs at 640 uM GlcN6P [2] | self-cleavage kobs at 160 uM GlcN6P [3]

AUAAAACCGCCAGAACUACAGAAAUGUAGUUUACGAGGAGGAGGUUUAUCGAAUUUUCGGCGGAUGCCUCCAAA [G7C G32U]
< 1e-05 s⁻¹: self-cleavage kobs at 40 uM GlcN6P [1] | self-cleavage kobs at 640 uM GlcN6P [2] | self-cleavage kobs at 2500 uM GlcN6P [4] | self-cleavage kobs at 10000 uM GlcN6P [5]

AUAAAACCGCCAGAACUACAGAAAUGUAGUUGACAAGGAGGAGGUUUAUCGAAUUUUCGGCGGAUGCCUCCAAA [G7C G35A]
< 1e-05 s⁻¹: self-cleavage kobs at 40 uM GlcN6P [1] | self-cleavage kobs at 640 uM GlcN6P [2] | self-cleavage kobs at 2500 uM GlcN6P [4] | self-cleavage kobs at 10000 uM GlcN6P [5]

AUAAAACCGCCAGAACUACAGAAAUGUAGUUGACCAGGAGGAGGUUUAUCGAAUUUUCGGCGGAUGCCUCCAAA [G7C G35C]
< 1e-05 s⁻¹: self-cleavage kobs at 40 uM GlcN6P [1] | self-cleavage kobs at 640 uM GlcN6P [2] | self-cleavage kobs at 160 uM GlcN6P [3] | self-cleavage kobs at 2500 uM GlcN6P [4] | self-cleavage kobs at 10000 uM GlcN6P [5]
